Assay results as given in PubChem BioAssay AID485341 (National Center for Advancing Translational Sciences (NCATS), 2010).
Hit rate of the full screen: of about 330,000 compounds, about 1,700 (0.52%) were called active. Inconclusive results, whose numbers are uncertain, are shown with a selection of clear calls. The call rests on the fitted dose curve; in most records, active means well fitted inhibition curve with a large enough effect; inconclusive means small, poorly fitted or top-dose-only effect; inactive means no such curve, though single readings can be large or run the other way. Where the call is inconclusive, the potency comes from a doubtful curve fit.

Target: Beta-lactamase (Escherichia coli (strain K12)) (UniProt P00811)
UniProt P00811, sequence (P00811 whole entry, looked up): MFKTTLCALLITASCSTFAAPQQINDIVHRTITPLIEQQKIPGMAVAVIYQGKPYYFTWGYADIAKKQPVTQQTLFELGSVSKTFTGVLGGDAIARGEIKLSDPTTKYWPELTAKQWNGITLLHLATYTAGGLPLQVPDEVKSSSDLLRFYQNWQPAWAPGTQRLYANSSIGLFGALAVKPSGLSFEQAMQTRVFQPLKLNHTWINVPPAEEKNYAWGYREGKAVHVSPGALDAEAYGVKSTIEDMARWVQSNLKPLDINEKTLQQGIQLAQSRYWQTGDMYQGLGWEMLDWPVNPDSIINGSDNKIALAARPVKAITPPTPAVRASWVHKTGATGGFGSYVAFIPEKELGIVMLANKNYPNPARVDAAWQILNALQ
Test: qHTS Inhibitors of AmpC Beta-Lactamase (assay without detergent); further: nearly all actives have a fitted effect of over 20% in size
Settings: AmpC nitrocefin hydrolysis, absorbance 480 nm, 0.0001% Triton; series mostly up to 57.1 µM
Method in brief: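 AmpC (5.3 nM in the dispensed reagent) in 20 mM phosphate pH 7.0 with 0.01% (detergent screen) or 0.0001% Triton X-100 was preincubated with compounds for 15 min at room temperature. Nitrocefin was then added from an 800 uM solution, and hydrolysis was followed at 480 nm.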
Potency means the concentration at half of the fitted maximal effect; tags describe the fitted curve by direction and shape.

Compound	Potency
O=C(NCc1nnnn1-c1cccc(F)c1)c1ccc(S(=O)(=O)N2CCOCC2)cc1	inconclusive: 39.8 µM [inhibitor, single point]
COc1ccc2c(c1)C(=O)N(CCc1ccc(S(=O)(=O)NC(=O)NC3CCCCC3)cc1)C(=O)C2(C)C	inconclusive: 2.82 µM [inhibitor, full curve, poor fit]
O=C(CSc1nc(-c2ccco2)cc(C(F)(F)F)n1)NCC1CCCO1 (centres undefined)	inconclusive: 5.01 µM [inhibitor, single point]
CC1CCC(NC(=O)Cn2ncc3ccccc32)CC1 (centres undefined)	active: 2.51 µM
Cc1onc(-c2c(Cl)cccc2Cl)c1C(=O)NC1C(=O)N2C1SC(C)(C)C2C(=O)O (centres undefined)	inconclusive: 0.02 µM [inhibitor, full curve, poor fit]
CCC1(CC)Cc2ccccc2C(=C(C#N)C#N)N1	inconclusive: 5.01 µM [inhibitor, single point]
C/C(=N\Nc1cccc(Cl)c1)c1ccc(-n2ccnc2)cc1	inconclusive: 39.8 µM [inhibitor, single point]
COc1cc2nc(N(CCCN(C)C)C(=O)c3ccc(S(=O)(=O)N4CCc5ccccc5C4)cc3)sc2cc1OC	inconclusive: 39.8 µM [inhibitor, single point]
Cc1cc(C)c(/C=N/NC(=O)c2nnn(-c3nonc3N)c2COc2ccc(F)cc2)c(C)c1	inconclusive: 5.01 µM [inhibitor, full curve, poor fit]
CN(C)CCNC=C(C(=O)Nc1ccc(Cl)cc1Cl)C(=O)Nc1ccc(Cl)cc1Cl	inconclusive: 0.112 µM [inhibitor, full curve, poor fit]
CCc1c(C)nc(SC)n(CC#N)c1=O	inconclusive: 6.31 µM [inhibitor, single point]
COc1ccccc1C(=O)NC(=O)COc1ccc(Cl)cc1Cl	inconclusive: 35.5 µM [inhibitor, single point]
COc1ccc(C(=O)N(C)C2CCCCC2)cc1OC1CCN(C(C)C)CC1	inactive
CCc1cc2c(CN3CCN(C)CC3)cc(=O)oc2cc1O	inconclusive: 10 µM [inhibitor, full curve, poor fit]
Cc1cccc(OCC(=O)Nc2sc3c(c2C#N)CCC3)c1	inconclusive: 0.316 µM [inhibitor, full curve, poor fit]
COc1ccc(C(=O)N=c2sc3c(C)ccc(OC)c3n2C)cc1	active: 1.12 µM
CC(=O)Nc1ccc(S(=O)(=O)NCCC(=O)OCc2csc(CC(=O)Nc3ccccc3C)n2)cc1	inconclusive: 12.6 µM [inhibitor, partial curve]
Cc1ccccc1OCC(=O)Nc1ccc(S(=O)(=O)N2CCCC2)cc1	inconclusive: 17.8 µM [inhibitor, partial curve]
COc1cccc(NC(=O)Cn2c(-c3cncs3)nc3ccccc32)c1	inconclusive: 6.31 µM [inhibitor, single point]
Cc1sc2nc(C3CC3)nc(SCC(=O)N3c4ccccc4CC3C)c2c1C (centres undefined)	inactive
CCOC(=O)c1sc(NC(=O)Cn2nnc3sc4c(c3c2=O)CCC(C(C)(C)C)C4)nc1C (centres undefined)	active: 3.55 µM
CN(C)c1ccc(/C=c2\sc3n(c2=O)CCCN=3)cc1	inconclusive: 6.31 µM [inhibitor, single point]
CC(C)OC(=O)c1cc2c(ccn2C)n1CC(=O)N(Cc1ccccc1)c1ccc(F)cc1	inactive

Compound	Potency
Cc1ccc(S(=O)(=O)N(C)C)cc1NC(=O)Nc1ccccc1	inactive
COc1c(Cl)cc(Cl)cc1/C=C/C(=O)c1ccc(NC(=O)c2cccs2)cc1	inconclusive: 10 µM [inhibitor, full curve, poor fit]
COc1ccc(CCNC(=O)c2cnn3ccccc23)c(OC)c1OC	inconclusive: 5.62 µM [inhibitor, full curve, poor fit]
C/C(=N/NC(=O)c1cc2ccccc2cc1O)c1ccco1	active: 25.1 µM
Cc1ccccc1Cn1ccc(-c2ccc(Cl)cc2)c(C#N)c1=O	inconclusive: 6.31 µM [inhibitor, single point]
Cc1cc(NC(=O)CSCC(=O)NCc2cccc(C(F)(F)F)c2)no1	inconclusive: 31.6 µM [inhibitor, single point]
COc1ccc(-n2c(SCC(=O)NCc3ccco3)nnc2-c2c[nH]c3ccccc23)cc1	active: 3.55 µM
O=C(CSc1nc(-c2ccco2)cc(C(F)(F)F)n1)Nc1ccccc1C(F)(F)F	inactive
O=C(O)c1ccc(N/N=C/c2cn(Cc3ccccc3F)c3ccccc23)cc1	inconclusive: 3.98 µM [inhibitor, full curve, poor fit]
CC(=O)n1cc(/C=N/NC(=O)c2cccc(O)c2)c2ccccc21	active: 11.2 µM
OC(CNCc1ccccc1)Cn1ccc2ccccc21 (centres undefined)	active: 17.8 µM
Fc1cccc(/C=N/Nc2nc3ccccc3[nH]2)c1	inconclusive: 2.51 µM [inhibitor, full curve, poor fit]
COc1cc(C2NC(=S)NC(C)=C2C(=O)c2ccccc2)ccc1O (centres undefined)	active: 14.1 µM
COc1ccc(-c2nc(-c3cccs3)no2)cc1	inactive
CCNC(=S)Nc1cccc(Cl)c1C	inconclusive: 0.562 µM [inhibitor, partial curve, poor fit]
Cc1ccc(N(C(=O)Cc2c[nH]c3ccccc23)C(C(=O)NC2CCCCC2)c2ccco2)cc1 (centres undefined)	inconclusive: 6.31 µM [inhibitor, partial curve, poor fit]
CCOC(=O)c1c(-c2ccc(OC)cc2)csc1NC(=O)CSc1nnc(C)c(=O)[nH]1	inconclusive: 28.2 µM [inhibitor, single point]
COc1ccc(C2=CC(=O)C=CC2=O)cc1	active: 31.6 µM
COc1ccccc1N(C(=O)CCl)c1cn(C(C)=O)c2ccccc12	inactive
Cn1c(=O)cc(OCC(=O)N2CCN(C3CCCCC3)CC2)c2ccccc21	active: 0.891 µM
CN(C)S(=O)(=O)c1cccc(NC(=O)COC(=O)c2cc(-c3cccc(Br)c3)nc3ccccc23)c1	inconclusive: 3.16 µM [inhibitor, partial curve]
NNC(=S)NCc1ccc2c(c1)OCO2	inconclusive: 10 µM [inhibitor, partial curve]
Cc1cc2c(ncn2C(C)C)c(N)c1C	inconclusive: 6.31 µM [inhibitor, single point]

Compound	Potency
Cc1c2cc(O)c(=O)cc-2oc2cc(O)c(O)cc12	inconclusive: 7.08 µM [inhibitor, partial curve]
O=C(Nc1nccs1)c1ccc(CSc2ccccc2)o1	inconclusive: 6.31 µM [inhibitor, partial curve]
CCN(C(=O)c1ccc(S(=O)(=O)N2CCCCC2)cc1)C1CCS(=O)(=O)C1 (centres undefined)	inconclusive: 39.8 µM [inhibitor, single point]
COc1ccc(CC(=S)N2CCOCC2)cc1	inconclusive: 1.26 µM [inhibitor, partial curve, poor fit]
CC1CN(Cc2cc(=O)[nH]c(C3CC3)n2)CC(C)O1 (centres undefined)	inconclusive: 7.08 µM [inhibitor, single point]
COc1ccc(S(=O)(=O)N(CC(=O)N/N=C/c2cccs2)c2cc(C)cc(C)c2)cc1OC	inconclusive: 1.41 µM [inhibitor, full curve, poor fit]
Cc1[nH]n(-c2cccc3ccccc23)c(=O)c1/C=N/NC(=O)c1cccc([N+](=O)[O-])c1	inconclusive: 20 µM [inhibitor, partial curve]
Cc1c(S(=O)(=O)N2CCCC2)c(=O)n(C)c(=O)n1C	inconclusive: 39.8 µM [inhibitor, single point]
O=C(O)c1cc(S(=O)(=O)Nc2ccc3c(c2)OCCO3)c(Cl)cc1Cl	inconclusive: 22.4 µM [inhibitor, partial curve, poor fit]
CS(=O)(=O)c1ccc(C(=O)OCC(=O)NC(=O)Cc2ccccc2)cc1	inconclusive: 39.8 µM [inhibitor, single point]
Cn1c(SCC(=O)Nc2cccc3ccccc23)nc(O)cc1=O	inconclusive: 31.6 µM [inhibitor, partial curve]
Cc1cccc(Oc2ncnc3onc(C)c23)c1	active: 0.794 µM
Cc1[nH]c2ccccc2c1SCc1nnc(SCc2ccccc2)n1C	inactive
CCOC(=O)c1c(C)c(C(=O)N2CCN(C(=O)c3ccco3)CC2)c(C)n1C	inactive
COCCCNC(=O)/C(C#N)=C1\N=C(NC(=O)c2cccs2)c2ccccc21	inactive
O=S(=O)(NNc1ccc(F)cc1F)c1cccc(Cl)c1	inconclusive: 6.31 µM [inhibitor, partial curve, poor fit]
CCOC(=O)c1c(-c2ccc(C)o2)csc1NC(=O)CSc1nnnn1-c1ccccc1	active: 11.2 µM
Clc1ccccc1/C=C/c1nc(-c2cccnc2)no1	inactive
COc1ccc(Br)cc1/C=C/C(=O)Nc1ccc2ccccc2c1	inconclusive: 3.98 µM [inhibitor, full curve, poor fit]
O=C(CN1CCC(n2nnc3cc(F)ccc32)CC1)NC1CCCCC1	inactive
Cc1cc2cc(CNC(=S)NC3CCCCC3)ccc2n1C	inconclusive: 25.1 µM [inhibitor, single point]
Cc1cccc(NC(=O)CSc2nc3nc4c(cc3c(=O)n2-c2ccccc2)CCCC4)c1	inactive
COCCS(=O)(=O)N(Cc1ccc(Br)cc1)[C@@H](C)C(=O)OC	inactive
